The list shows a part of the results. These are noisy estimates, calculated here from bound and input reads.
target: T1, Pho4 (S. cerevisiae) (UniProt P07270); assay: relative binding free energy (BET-seq); higher = weaker binding; conditions: reference: library average
T1 sequence: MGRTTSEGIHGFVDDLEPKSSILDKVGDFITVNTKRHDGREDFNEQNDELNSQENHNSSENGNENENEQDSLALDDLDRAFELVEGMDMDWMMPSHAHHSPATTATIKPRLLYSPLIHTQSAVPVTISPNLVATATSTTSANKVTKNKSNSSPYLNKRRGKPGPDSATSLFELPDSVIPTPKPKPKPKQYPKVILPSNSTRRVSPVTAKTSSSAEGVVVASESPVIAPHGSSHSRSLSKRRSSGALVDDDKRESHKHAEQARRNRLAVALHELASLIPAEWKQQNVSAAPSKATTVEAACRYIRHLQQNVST

Row | Sequence | relative binding free energy
1 | ATTGTCACGTGGGGTA | -0.12 kcal/mol
2 | TGATGCACGTGCTTGA | -0.1 kcal/mol
3 | ACTTTCACGTGTAATT | 0.32 kcal/mol
4 | AGTAACACGTGCGGGC | 0.06 kcal/mol
5 | GGCGGCACGTGAGGAA | 0.18 kcal/mol
6 | GGTGGCACGTGGCTTA | -0.15 kcal/mol
7 | ATTTGCACGTGTCGGT | 0.07 kcal/mol
8 | GACTGCACGTGAGGTG | 0.26 kcal/mol
9 | TTCGACACGTGGTGAT | 0.04 kcal/mol
10 | ATTTTCACGTGAATAG | 0.41 kcal/mol
11 | AGCATCACGTGGGAGG | 0 kcal/mol
12 | GTGATCACGTGAATGG | 0.32 kcal/mol
13 | TTACACACGTGGGGGT | -0.28 kcal/mol
14 | GAGATCACGTGTCGTG | 0.3 kcal/mol
15 | TACGGCACGTGGAGCG | -0.11 kcal/mol
16 | CCTGGCACGTGTTGGG | -0.05 kcal/mol
17 | GGGATCACGTGATTAG | 0.37 kcal/mol
18 | TGCCGCACGTGGTATG | -0.21 kcal/mol
19 | TGAGGCACGTGTGTTT | 0.03 kcal/mol
20 | ATCAGCACGTGCGGGT | -0.16 kcal/mol
21 | GTGTTCACGTGTTGTC | 0.32 kcal/mol
22 | AGGATCACGTGTATGC | 0.25 kcal/mol
23 | AGTGTCACGTGCTGTA | -0.07 kcal/mol

Row | Sequence | relative binding free energy
24 | ATCGTCACGTGGGTGG | 0.05 kcal/mol
25 | GGAGGCACGTGTTTTC | 0.02 kcal/mol
26 | TCGGTCACGTGTAGGG | 0.11 kcal/mol
27 | TTTTACACGTGCTTCG | 0.17 kcal/mol
28 | GTGTGCACGTGGTTGA | -0.04 kcal/mol
29 | GGGAGCACGTGGGAAA | -0.15 kcal/mol
30 | GGTATCACGTGCGGAG | 0.19 kcal/mol
31 | GTAATCACGTGTGCAT | 0.28 kcal/mol
32 | AAAAACACGTGTGGGG | -0.07 kcal/mol
33 | TCATGCACGTGTGATT | -0.03 kcal/mol
34 | AAGCGCACGTGACGGG | 0.12 kcal/mol
35 | AGCATCACGTGTTATT | 0.15 kcal/mol
36 | GTATGCACGTGCGGTT | -0.02 kcal/mol
37 | CGGGTCACGTGCAGTG | 0.04 kcal/mol
38 | GGTGGCACGTGATGTG | 0.12 kcal/mol
39 | TTCTACACGTGTAATT | 0.22 kcal/mol
40 | TCTTGCACGTGTACGT | 0.11 kcal/mol
41 | TTCAGCACGTGAAGGT | 0.16 kcal/mol
42 | GCGGGCACGTGTCGAG | 0.01 kcal/mol
43 | TTGGGCACGTGTCGGT | -0.1 kcal/mol
44 | GGTTTCACGTGCGTAT | 0.4 kcal/mol
45 | GATGGCACGTGAGGGA | 0.21 kcal/mol
46 | GAAGGCACGTGATGGC | 0.04 kcal/mol

Row | Sequence | relative binding free energy
47 | GGTTGCACGTGTGGGC | 0.15 kcal/mol
48 | ATTTACACGTGTGAGG | 0.13 kcal/mol
49 | TTTGCCACGTGACGGG | -0.09 kcal/mol
50 | AATATCACGTGTTATA | 0.08 kcal/mol
51 | GTAGGCACGTGCTGTT | -0.16 kcal/mol
52 | AGTTTCACGTGGGATG | 0.11 kcal/mol
53 | CGCGACACGTGAGGGT | 0.25 kcal/mol
54 | TCTGTCACGTGTCATT | 0.09 kcal/mol
55 | GTTGCCACGTGATTTA | 0.19 kcal/mol
56 | GTGAACACGTGCTGGT | 0.02 kcal/mol
57 | AGTCTCACGTGTGTCT | 0.22 kcal/mol
58 | TAGTACACGTGGGCTT | -0.07 kcal/mol
59 | ATTATCACGTGACGTT | 0.22 kcal/mol
60 | GTGTACACGTGAGGAG | 0.24 kcal/mol
61 | TTACTCACGTGAGGGT | 0.31 kcal/mol
62 | ATTAACACGTGGAGTT | 0.06 kcal/mol
63 | TGTATCACGTGTCCGG | 0.14 kcal/mol
64 | TGAAACACGTGGTAAG | 0.08 kcal/mol
65 | TAGAACACGTGGTTGT | -0.13 kcal/mol
66 | TTGGACACGTGGCTGT | 0.03 kcal/mol
67 | GAAAGCACGTGTGGCG | 0.16 kcal/mol
68 | TGCGGCACGTGGGTCT | -0.31 kcal/mol
69 | TGGTGCACGTGAGGGA | 0.17 kcal/mol

Row | Sequence | relative binding free energy
70 | ATGGACACGTGTTATT | 0.1 kcal/mol
71 | TTGTTCACGTGGGTGC | 0.14 kcal/mol
72 | ATAGACACGTGTGTAA | -0.02 kcal/mol
73 | GTCTTCACGTGTATAT | 0.22 kcal/mol
74 | ACGGTCACGTGTGTAG | -0.02 kcal/mol
75 | ATGGGCACGTGTTGGC | -0.13 kcal/mol
76 | TTAAACACGTGTGGGG | 0.12 kcal/mol
77 | TACGGCACGTGAGTAG | 0.14 kcal/mol
78 | TAGTTCACGTGCAGTG | 0.19 kcal/mol
79 | GAAGGCACGTGGATGG | -0.12 kcal/mol
80 | TTATACACGTGGAGAT | -0.08 kcal/mol
81 | ACGGTCACGTGTGGTT | 0.1 kcal/mol
82 | TGCTACACGTGGAGGA | 0.15 kcal/mol
83 | CAGTTCACGTGGTTGA | 0.1 kcal/mol
84 | TTTTACACGTGCTGGG | 0.11 kcal/mol
85 | ATAGACACGTGGGATT | -0.06 kcal/mol
86 | GCGTGCACGTGTCGGA | 0.12 kcal/mol
87 | GTTAGCACGTGGACGG | -0.02 kcal/mol
88 | TCTAACACGTGTTTGG | 0.05 kcal/mol
89 | TCGGTCACGTGGATTA | 0.01 kcal/mol
90 | ATTTGCACGTGCAGGT | -0.05 kcal/mol
91 | TGTTTCACGTGTTTAG | 0.35 kcal/mol
92 | TTAGGCACGTGAGGTC | 0.21 kcal/mol

Row | Sequence | relative binding free energy
93 | GTTGTCACGTGGAATG | 0.11 kcal/mol
94 | CCTGTCACGTGTTGGG | 0.08 kcal/mol
95 | TGGTCCACGTGGATTG | 0.09 kcal/mol
96 | ATATTCACGTGGTAAG | 0.24 kcal/mol
97 | TGTTTCACGTGGGTTA | 0.24 kcal/mol
98 | TTAGTCACGTGACGTT | 0.02 kcal/mol
99 | GGATGCACGTGGCAGT | -0.02 kcal/mol
100 | GGTTTCACGTGCTTTG | 0.2 kcal/mol
101 | TTTTGCACGTGGTGGT | 0 kcal/mol
102 | CGAGACACGTGGAGGG | 0.05 kcal/mol
103 | TGCATCACGTGGTCGT | -0.05 kcal/mol
104 | TTATGCACGTGGCGGA | -0.11 kcal/mol
105 | GGAGACACGTGTTGGT | 0.06 kcal/mol
106 | ATATACACGTGATTAT | 0.03 kcal/mol
107 | TTAGTCACGTGTGAAT | 0.29 kcal/mol
108 | AGTGCCACGTGGTTCT | -0.07 kcal/mol
109 | TAGTGCACGTGGTAGT | -0.11 kcal/mol
110 | GTGGTCACGTGCAGCT | 0.07 kcal/mol
111 | TGCTTCACGTGTTGAG | 0.23 kcal/mol
112 | GGATTCACGTGGGCAA | 0.24 kcal/mol
113 | TGTAGCACGTGGAGTC | 0.11 kcal/mol
114 | GGTTGCACGTGTGTTT | 0.11 kcal/mol
115 | AACTGCACGTGCTGGT | 0.11 kcal/mol

— the BET-seq Pho4 binding data (Le et al. 2018)
